Source: the supplement of paper PMC4604168 (melanoma cell lines)
Some of the results follow. Most values come without repeats; read them as rough.

Assays:
Assay in all cases: cell count relative to DMSO control; melanoma cells; higher = more viable cells
Conditions in all cases: library dose: low library concentration; 72 h
[1] = system: WM115
[2] = system: WM1716
[3] = system: WM1745
[4] = system: WM3526
[5] = system: WM3619
[6] = system: WM451Lu
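Note: cell number obtained by counting DAPI-stained nuclei in high-throughput microscope images with image analysis software, screen run in 1,536-well plates.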

| Compound | cell count [1] | cell count [2] | cell count [3] | cell count [4] | cell count [5] | cell count [6] |
| --- | --- | --- | --- | --- | --- | --- |
| COc1ccc(C2=N[C@@H](c3ccc(Cl)cc3)[C@@H](c3ccc(Cl)cc3)N2C(=O)N2CCNC(=O)C2)c(OC(C)C)c1 [Nutlin-3] + OCc1c[nH]c2ccccc12 [Indole-3-carbinol] (first compound 0.1 µM, partner dose 0.8 µM) | 87.6% | 85.8% | 104% | 120% | 92.6% | 89.5% |
| COc1ccc(C2=N[C@@H](c3ccc(Cl)cc3)[C@@H](c3ccc(Cl)cc3)N2C(=O)N2CCNC(=O)C2)c(OC(C)C)c1 [Nutlin-3] + CO[C@@H]1[C@H](N(C)C(=O)c2ccccc2)C[C@H]2O[C@]1(C)n1c3ccccc3c3c4c(c5c6ccccc6n2c5c31)C(=O)NC4 [Midostaurin] (first compound 0.1 µM, partner dose 0.08 µM) | 78.9% | 70.5% | 82.1% | 92.5% | 67.1% | 94.2% |
| COc1ccc(C2=N[C@@H](c3ccc(Cl)cc3)[C@@H](c3ccc(Cl)cc3)N2C(=O)N2CCNC(=O)C2)c(OC(C)C)c1 [Nutlin-3] + C[C@]1(c2nc3c(C(N)=O)cccc3[nH]2)CCCN1 [Veliparib] (first compound 0.1 µM, partner dose 1.4 µM) | 76% | 78.2% | 104% | 99.1% | 74.1% | 87% |
| COc1ccc(C2=N[C@@H](c3ccc(Cl)cc3)[C@@H](c3ccc(Cl)cc3)N2C(=O)N2CCNC(=O)C2)c(OC(C)C)c1 [Nutlin-3] + Nc1cccc2c1CN(C1CCC(=O)NC1=O)C2=O [lenalidomide] (first compound 0.1 µM, partner dose 1 µM) | 94.7% | 83.3% | 86.3% | 91.6% | 87.6% | 104% |
| Cc1cc(Nc2cc(N3CCN(C)CC3)nc(/C=C/c3ccccc3)n2)n[nH]1 + OCCn1cc(-c2cnc3nnn(Cc4ccc5ncccc5c4)c3n2)cn1 [PF04217903] (first compound 0.04 µM, partner dose 1 µM) | 112% | 98% | 97% | 99.6% | 119% | 122% |
| Cn1c(=O)n(-c2ccc(C(C)(C)C#N)cc2)c2c3cc(-c4cnc5ccccc5c4)ccc3ncc21 + CNC(=O)c1cc(Oc2ccc(NC(=O)Nc3ccc(Cl)c(C(F)(F)F)c3)cc2)ccn1 [sorafenib] (first compound 0.004 µM, partner dose 0.4 µM) | 96.9% | 90.2% | 96.9% | 85.5% | 96.1% | 105% |
| COc1ccc(C2=N[C@@H](c3ccc(Cl)cc3)[C@@H](c3ccc(Cl)cc3)N2C(=O)N2CCNC(=O)C2)c(OC(C)C)c1 [Nutlin-3] + O=C(O)c1ccc(-c2c[nH]c3ncc(-c4ccccc4)cc23)cc1C1CCCC1 [GSK650394] (first compound 0.1 µM, partner dose 0.16 µM) | 92.6% | 78.8% | 101% | 79.4% | 62% | 97.4% |
| Cc1cc(Nc2cc(N3CCN(C)CC3)nc(/C=C/c3ccccc3)n2)n[nH]1 + CC1(C)NC(=O)N(c2ccc([N+](=O)[O-])c(C(F)(F)F)c2)C1=O [nilutamide] (first compound 0.04 µM, partner dose 1 µM) | 86.3% | 100% | 80% | 91.1% | 99.7% | 79.4% |
| Cc1cc(Nc2cc(N3CCN(C)CC3)nc(/C=C/c3ccccc3)n2)n[nH]1 + Cc1cc([N+](=O)[O-])ccc1NS(=O)(=O)c1cc(Cl)ccc1Cl [FH535] (first compound 0.04 µM, partner dose 1 µM) | 80.8% | 91% | 87.3% | 89.9% | 110% | 95% |
| CC(C)C[C@H](NC(=O)[C@H](Cc1ccccc1)NC(=O)c1cnccn1)B(O)O [Bortezomib] + Nc1ccn([C@@H]2O[C@H](CO)[C@@H](O)C2(F)F)c(=O)n1 [gemcitabine] (first compound 0.001 µM, partner dose 0.0004 µM) | 119% | 26.6% | 64.5% | 81.2% | 15.6% | 90.2% |
| Cc1cn(-c2cc(NC(=O)c3ccc(C)c(Nc4nccc(-c5cccnc5)n4)c3)cc(C(F)(F)F)c2)cn1 [nilotinib] + CCc1ccc(CCOc2ccc(CC3SC(=O)NC3=O)cc2)nc1 [pioglitazone] (first compound 0.2 µM, partner dose 2 µM) | 114% | 87.7% | 97.3% | 94.3% | 92.8% | 110% |
| Cn1c(=O)n(-c2ccc(C(C)(C)C#N)cc2)c2c3cc(-c4cnc5ccccc5c4)ccc3ncc21 + C=CCNC1=C2C[C@@H](C)C[C@H](OC)[C@H](O)[C@@H](C)/C=C(\C)[C@H](OC(N)=O)[C@@H](OC)/C=C\C=C(/C)C(=O)NC(=CC1=O)C2=O [Tanespimycin] (first compound 0.004 µM, partner dose 0.002 µM) | 83.9% | 93.8% | 88.6% | 86.2% | 78.7% | 113% |
| Cn1c(=O)n(-c2ccc(C(C)(C)C#N)cc2)c2c3cc(-c4cnc5ccccc5c4)ccc3ncc21 + c1cc(-c2cnn3cc(-c4ccc(OCCN5CCCCC5)cc4)cnc23)ccn1 [Dorsomorphin] (first compound 0.004 µM, partner dose 0.4 µM) | 95.5% | 95.9% | 95.7% | 72% | 88.2% | 95.7% |
| Cn1c(=O)n(-c2ccc(C(C)(C)C#N)cc2)c2c3cc(-c4cnc5ccccc5c4)ccc3ncc21 + O=C(Nc1ccccc1)c1cc([N+](=O)[O-])ccc1Cl [GW9662] (first compound 0.004 µM, partner dose 2 µM) | 99.4% | 96.5% | 101% | 102% | 83.5% | 140% |
| CC(C)C[C@H](NC(=O)[C@H](Cc1ccccc1)NC(=O)c1cnccn1)B(O)O [Bortezomib] + CC(C)CCN1c2nc(Nc3cc(F)c(O)c(F)c3)ncc2N(C)C(=O)C1C [BID1870] (first compound 0.001 µM, partner dose 0.2 µM) | 92.2% | 24.9% | 64.8% | 79.6% | 11.9% | 84.3% |
| Cc1cc(Nc2cc(N3CCN(C)CC3)nc(/C=C/c3ccccc3)n2)n[nH]1 + CO[C@@H]1[C@H](N(C)C(=O)c2ccccc2)C[C@H]2O[C@]1(C)n1c3ccccc3c3c4c(c5c6ccccc6n2c5c31)C(=O)NC4 [Midostaurin] (first compound 0.04 µM, partner dose 0.08 µM) | 78.7% | 70.4% | 76% | 102% | 88.9% | 108% |
| COc1ccc(C2=N[C@@H](c3ccc(Cl)cc3)[C@@H](c3ccc(Cl)cc3)N2C(=O)N2CCNC(=O)C2)c(OC(C)C)c1 [Nutlin-3] + Cn1cc(/C=C2\C(=O)Nc3cccnc32)c2ccccc21 [GW441756] (first compound 0.1 µM, partner dose 0.4 µM) | 80.4% | 88.1% | 88.8% | 110% | 104% | 96.9% |
| Cn1c(=O)n(-c2ccc(C(C)(C)C#N)cc2)c2c3cc(-c4cnc5ccccc5c4)ccc3ncc21 + O=S(=O)(c1ccccc1)N(CC(F)(F)F)c1ccc(C(O)(C(F)(F)F)C(F)(F)F)cc1 [T0901317] (first compound 0.004 µM, partner dose 1.4 µM) | 87.5% | 90.4% | 88.1% | 84.7% | 88.1% | 76.1% |
| Cc1cn(-c2cc(NC(=O)c3ccc(C)c(Nc4nccc(-c5cccnc5)n4)c3)cc(C(F)(F)F)c2)cn1 [nilotinib] + CCCCCCCCc1ccc(CCC(N)(CO)CO)cc1 [fingolimod] (first compound 0.2 µM, partner dose 2 µM) | 97.2% | 91.4% | 83.9% | 86.8% | 85.3% | 117% |
| Cc1cn(-c2cc(NC(=O)c3ccc(C)c(Nc4nccc(-c5cccnc5)n4)c3)cc(C(F)(F)F)c2)cn1 [nilotinib] + Oc1nc(-c2ccc(C(F)(F)F)cc2)nc2c1CSCC2 [XAV939] (first compound 0.2 µM, partner dose 2 µM) | 107% | 66.6% | 76% | 113% | 86.2% | 110% |
| CC(C)C[C@H](NC(=O)[C@H](Cc1ccccc1)NC(=O)c1cnccn1)B(O)O [Bortezomib] + COc1cc(Nc2ncc(F)c(Nc3ccc4c(n3)NC(=O)C(C)(C)O4)n2)cc(OC)c1OC [Tamatinib] (first compound 0.001 µM, partner dose 0.4 µM) | 90.8% | 40.3% | 32.7% | 93.5% | 9.79% | 90.7% |
| Cn1c(=O)n(-c2ccc(C(C)(C)C#N)cc2)c2c3cc(-c4cnc5ccccc5c4)ccc3ncc21 + CC(=O)c1c(C)c2cnc(Nc3ccc(N4CCNCC4)cn3)nc2n(C2CCCC2)c1=O [palbociclib] (first compound 0.004 µM, partner dose 0.04 µM) | 81.5% | 72.4% | 77% | 64.7% | 75.2% | 90.4% |
| Cn1c(=O)n(-c2ccc(C(C)(C)C#N)cc2)c2c3cc(-c4cnc5ccccc5c4)ccc3ncc21 + COc1ccc2c(c1)CCC1C2CCC2(C)C(NCCCCCCN3C(=O)C=CC3=O)CCC12 [U73122] (first compound 0.004 µM, partner dose 0.4 µM) | 79.3% | 78.1% | 83.4% | 86.9% | 106% | 106% |
| Cn1c(=O)n(-c2ccc(C(C)(C)C#N)cc2)c2c3cc(-c4cnc5ccccc5c4)ccc3ncc21 + CCCS(=O)(=O)Nc1ccc(F)c(C(=O)c2c[nH]c3ncc(Cl)cc23)c1F [PLX4720] (first compound 0.004 µM, partner dose 0.08 µM) | 93.3% | 109% | 120% | 68.9% | 78.8% | 100% |
